Results on 88 molecules are retold here after PubChem BioAssay AID463173 (ICCB-Longwood Screening Facility, Harvard Medical School, 2010).

About 1,700 (3.3%) of roughly 52,000 compounds were called active. Cut-off read from the data, not from the text of the source: active = survival mostly below about 52% (no sharp cut-off); inactive = mostly above about 56%. The list shows a part of the results.

The experiment concerns Wild type. The experiment can be described thus: growth inhibition of S. aureus wild type versus tarO mutant, primary screen, teichoic acid synthesis inhibitors, RN4220, OD600 (AID 463173). The conditions noted are these: S. aureus RN4220 wild type/DeltatarO growth, OD600, 18 h, hits give low values, screened at 18.75 µg/mL (by protocol).
For the molecule `CCOC(=O)COc1ccc(C2C(C(=O)OC)=C(C)NC3=C2C(=O)c2ccccc23)cc1Cl` (stereo not drawn), the survival was inactive: 130%.

As to `CCOC(=O)CC(NC(=O)CCc1c(C)nc2c(-c3ccccc3)c(C)nn2c1C)c1ccc(OC(C)C)cc1` (stereo not drawn), the survival is inactive: 85%.

Regarding `COc1ccc(CNc2nc(-c3ccco3)nn2S(=O)(=O)c2ccc(Cl)cc2)cc1OC`, the survival was inactive: 81%.

As for `O=C(CSc1cn(CC(=O)N2CCCC2)c2ccccc12)Nc1ccc(Cl)cc1`, the survival is inactive: 95%.

For the molecule `COc1ccc(Cl)cc1NC(=O)c1cc2c(=O)n3ccccc3nc2s1`, the survival was inactive: 97%.

Turning to `CCOC(=O)c1cc(S(=O)(=O)Nc2cc(OC)ccc2OC)[nH]n1`, the survival was inactive: 123%.

Take `Cc1ccc(C(=O)NCC(c2ccc3c(c2)OCO3)N2CCOCC2)cc1C` (stereo not drawn): the survival is inactive: 82%.

`COC(=O)c1c(NC(=O)CCCOc2cccc(C)c2)sc2c1CCC2`: the survival is active: 12%.

In the case of `Cc1cc(O)c(C(c2cccc(F)c2)N2CCN(c3ccccc3)CC2)c(=O)n1Cc1ccco1` (stereo not drawn), the survival is inactive: 65%.

As to `CN(c1ccccc1)S(=O)(=O)c1ccc(NC(=O)c2nc(S(C)(=O)=O)ncc2Cl)cc1`, the survival is active: 2%.

For the molecule `COc1ccc(-c2c(C#N)c(SCC(=O)Nc3ccccc3C)nc(C)c2C(=O)Nc2ccc(Cl)cc2)cc1`, the survival was inactive: 146%.

On to `Cc1cc(C)n(-c2nnc(Nc3ccc(C)c(C)c3)c3ccccc23)n1`, for which the survival was inactive: 84%.

Regarding `CCOCC(=O)Nc1nnc(CC)s1`, the survival was inactive: 106%.

Consider `O=C1Nc2ccccc2Oc2cc(Oc3ccccc3)ccc21`, for which the survival is inactive: 41%.

On to `Cc1ccc2cc(C#N)c(N3CCCN(C(=O)C4CCCCC4)CC3)nc2c1`, for which the survival was inactive: 120%.

For `Cc1ccc(C)c(CN2C(=O)c3ccccc3S(=O)(=O)c3ccc(C(=O)OCC4CCCO4)cc32)c1` (stereo not drawn), the survival was inactive: 71%.

For `COc1ccc(NC(=O)Cn2c(SCc3ccc(C)cc3)nc3cccnc32)cc1OC`, the survival is inactive: 92%.

As to `COc1ccc(NC(=O)c2sc3nc4c(cc3c2N)CN(Cc2ccccc2)CC4)c(OC)c1`, the survival is inactive: 67%.

Regarding `CCCC(=O)Nc1nnc(S(=O)(=O)N(C)Cc2ccc(Cl)cc2)s1`, the survival is inactive: 101%.

Regarding `Cc1cccc(Cn2c(=O)n3nc(-c4ccccc4)nc3c3ccccc32)c1`, the survival is active: -24%.

`CC(C)c1ccc(S(=O)(=O)c2nnn3c2nc(N2CCCC2)c2sccc23)cc1`: the survival is inactive: 89%.

`COc1ccc(C2c3cc(OC)c(OC)cc3CC(=O)N2c2ccc(C)cc2)cc1` (stereo not drawn): the survival was inactive: 86%.

On to `CCC(C)c1ccc2oc(-c3ccc(NC(=O)c4cc5ccccc5o4)cc3)nc2c1` (stereo not drawn), for which the survival is inactive: 67%.

In the case of `COc1ccccc1Nc1nc(-c2ccccc2F)nc2ccccc12`, the survival is inactive: 73%.

Take `Cc1cccc(-c2nn3c(=O)cc(CN4CCN(C(=O)/C=C/c5ccccc5)CC4)nc3s2)c1`: the survival was inactive: 74%.

Take `Cn1c(=O)[nH]c2cc(-c3noc(-c4ccc(Br)cc4)n3)ccc21`: the survival was inactive: 55%.

For `COc1cc2c(C(=O)Nc3cc(OC)c(OC)c(OC)c3)cn(C)c(=O)c2cc1OC`, the survival is inactive: 66%.

For the molecule `O=C(CC1N=C2c3ccccc3N=C(SCc3ccc(F)cc3)N2C1=O)NCc1ccc2c(c1)OCO2` (stereo not drawn), the survival was inactive: 74%.

In the case of `O=C(NCCN1CCN(c2cccc(Cl)c2)CC1)Nc1ccccc1`, the survival was inactive: 73%.

Regarding `CCc1ccc(NC(=O)c2ccc(-c3ccccc3)s2)cc1`, the survival is inactive: 156%.

For `Cn1c2c(c3ccccc31)CCc1nonc1-2`, the survival is inactive: 109%.

In the case of `CCOC(=O)C1CCN(c2ncnc3c2nc2n3CCCCC2)CC1`, the survival is inactive: 76%.

`Cc1cccc(C(=O)NCC(c2ccco2)S(=O)(=O)c2cccs2)c1` (stereo not drawn): the survival is inactive: 90%.

In the case of `CCc1ccc(NC(=O)c2cnn(-c3ccccc3)c2-n2cccc2)cc1`, the survival is inactive: 16%.

In the case of `CCC(Oc1ccccc1)C(=O)Nc1nnc(S(=O)(=O)N(CC)CC)s1` (stereo not drawn), the survival is inactive: 100%.

As to `CCc1cnc2c(c1SCC(=O)NCc1ccccc1Cl)c(=O)n(C)c(=O)n2C`, the survival was inactive: 75%.

As to `COc1cccc(-c2noc(C3CCCN(S(=O)(=O)c4ccccc4F)C3)n2)c1` (stereo not drawn), the survival is inactive: 118%.

`Cc1cccc(NC(=O)c2ccc(-c3ccccc3)s2)c1`: the survival is inactive: 82%.

`COC(=O)c1c(NC(=O)c2ccc(S(=O)(=O)N3CCC(C)CC3)cc2)sc2c1CCN(C)C2`: the survival was inactive: 45%.

Consider `Cc1ccccc1CNC(=O)c1cnc2sc(N3CCC(C)CC3)nn2c1=O`, for which the survival is inactive: 76%.

In the case of `COc1cc2ccccc2cc1C(=O)Nc1cccc(-c2nc3cc(C)c(C)cc3o2)c1`, the survival is inactive: 58%.

Regarding `Cc1cc(C)c(NC(=O)C2CCN(c3nc4ccccc4n4cccc34)CC2)c(C)c1`, the survival is inactive: 80%.

As for `CCn1c(SCC(=O)N2CCCCC2)nnc1-c1ccc(S(=O)(=O)N2CCCC2)cc1`, the survival is inactive: 105%.

For `CN(C(=O)CSc1nnc(NC(=O)Nc2ccccc2)s1)c1ccccc1`, the survival was inactive: 93%.

Consider `Brc1cccc(-c2nnn3c2nc(NCc2ccc4c(c2)OCO4)c2ccccc23)c1`, for which the survival was inactive: 138%.

Take `CC(C)NC(=O)C1CCC(Cn2c(=O)c3sccc3n(Cc3ccc(F)cc3)c2=O)CC1` (stereo not drawn): the survival was inactive: 54%.

Take `COc1ccc(-n2ncc(C(=O)NCc3ccco3)c2C2CCN(C(=O)OC(C)(C)C)CC2)cc1`: the survival was inactive: 59%.

Take `O=C(NCC(c1cccnc1)N1CCc2ccccc21)c1cccc(Br)c1` (stereo not drawn): the survival was inactive: 65%.

Regarding `CC(C)c1cccc(C(C)C)c1NC(=O)c1ccncc1`, the survival was inactive: 99%.

For `COC(=O)c1c(-c2ccc(Cl)cc2)noc1N1CCN(c2cc(C)ccc2C)CC1`, the survival is inactive: 115%.

`COc1cccc(NC(=O)C2CCCN(S(=O)(=O)c3cn(C(C)C)cn3)C2)c1` (stereo not drawn): the survival is inactive: 129%.

`CCOc1ccc(CCNC(=O)c2cc3cccc4c3n2CCS4)cc1`: the survival is inactive: 69%.

`CC(C)(C)c1ccc(/C=C/C(=O)Nc2ccc(S(N)(=O)=O)cc2)cc1`: the survival is inactive: 92%.

Regarding `N#CC1=C(N)C(C#N)(C#N)C(c2ccccc2)C2CCCC=C12` (stereo not drawn), the survival is inactive: 114%.

For `CCCNC(=O)Cn1c(=O)n(CC2CCC(C(=O)NC)CC2)c(=O)c2sccc21` (stereo not drawn), the survival was inactive: 68%.

`CCN(CC)S(=O)(=O)c1ccc2c(c1)N(CC(=O)Nc1ccccc1F)C(=O)C1CCCN21` (stereo not drawn): the survival is inactive: 72%.

With `Cc1ccc(NC(=O)/C(C#N)=C/c2ccc(-c3ccc(Cl)c(C(=O)O)c3)o2)cc1C`, the survival was inactive: 64%.

In the case of `CCOc1cccc(NC(=O)C2CC(=O)N(CC)C(=Nc3ccc(F)cc3)S2)c1` (stereo not drawn), the survival was inactive: 34%.

On to `O=C1CS(=O)(=O)C2(C(=O)N(Cc3ccccc3Cl)c3ccccc32)N1c1ccc(F)cc1` (stereo not drawn), for which the survival is inactive: 85%.

As for `COc1ccc(Cn2c(C(=O)O)c(CNCCc3ccco3)c3ccc(OC)cc32)cc1`, the survival was inactive: 111%.

Regarding `COc1ccc(N2CCN(c3ncnc4c3cnn4C)CC2)cc1`, the survival was inactive: 70%.

Turning to `Cc1cccc(C(=O)Nc2ccc(S(=O)(=O)N3CCC(c4nc5ccccc5s4)CC3)cc2)c1`, the survival was inactive: 79%.

`CCCN(C(=O)C(C)C)c1nnc(-c2cc(OC)c(OC)c(OC)c2)s1`: the survival was inactive: 120%.

For the molecule `O=C(COC(=O)c1ccccc1Cl)Nc1nccs1`, the survival was inactive: 97%.

On to `C=Cc1ccc(Cn2c(C(=O)O)c(CNCc3ccc(F)cc3)c3ccc(C)cc32)cc1`, for which the survival was inactive: 68%.

For the molecule `Cc1cc(C)c(NC(=O)CSc2ncc3c(n2)-c2cc(Cl)ccc2N(C)S3(=O)=O)c(C)c1`, the survival is inactive: 124%.

Take `CCC(C)(C)NC(=O)C1CCN(S(=O)(=O)c2ccc3c(c2)CCCN3C(C)=O)CC1`: the survival is inactive: 71%.

Consider `CNC(=S)N(Cc1cc2ccc(OC)cc2[nH]c1=O)C1CCCC1`, for which the survival is inactive: 110%.

Consider `COCCCNC(=O)c1cc2cc(S(=O)(=O)N3CCCCC3)ccc2n1C`, for which the survival was inactive: 73%.

With `COc1cc(CN2CCc3nc(N4CCN(c5ccccn5)CC4)ncc3C2)cc(OC)c1OC`, the survival was inactive: 71%.

As to `CCOc1ccc(S(=O)(=O)n2nc(C)c(S(=O)(=O)N3CCCCC3)c2C)cc1`, the survival is inactive: 67%.

For `O=C(Nc1ccc(Cl)cc1C(F)(F)F)c1cc(S(=O)(=O)N2CCOCC2)ccc1F`, the survival was inactive: 136%.

Turning to `CC(C)(C)OC(=O)N1CCC(c2c(C(=O)NCc3ccco3)cnn2-c2ccccc2Cl)CC1`, the survival is inactive: 67%.

`Cc1nn(CCCC(=O)NCc2ccccc2)c(=O)c2cc3sccc3n12`: the survival was inactive: 73%.

Regarding `COc1ccc(C(=O)Nc2cc3c(cc2N2CCCC2)n(C)c(=O)c(=O)n3C)cc1OC`, the survival was inactive: 87%.

As for `CCCC(=O)n1nc(-c2cccnc2)nc1NCc1ccc(OC)cc1`, the survival is inactive: 86%.

As to `CC(=O)c1cc(-c2ccccc2)n(CCC(=O)NC(C)c2ccccc2)c1C` (stereo not drawn), the survival is inactive: 60%.

With `COC(=O)c1ccccc1NS(=O)(=O)c1ccc2c(c1)CCCN2C(C)=O`, the survival is inactive: 65%.

On to `Cc1cccc(C)c1NC(=O)Cn1c(=O)n(Cc2ccc3c(c2)OCO3)c(=O)c2oc3ccccc3c21`, for which the survival was inactive: 88%.

With `O=C(c1ccccc1F)N(Cc1cccs1)c1ccc(O)cc1`, the survival was inactive: 97%.

In the case of `CCOc1cc(C(=O)Nc2ccc(-c3nc4ccccc4s3)cc2Cl)cc(OCC)c1OCC`, the survival was inactive: 83%.

As to `COc1ccccc1NC(=O)Cn1nc(-c2ccc(C)cc2)c2c(c1=O)CCCC2`, the survival was inactive: 74%.

Take `CCOc1ccc(OCC)c(NC(=O)C(NS(=O)(=O)c2cccs2)c2ccccc2)c1` (stereo not drawn): the survival was inactive: 107%.

`COc1ccc(C(=O)Nc2cc(S(=O)(=O)c3ccc(Cl)cc3)c(O)c(C)c2C)cc1`: the survival is inactive: 90%.

As to `Fc1ccc(-n2ncc3c(NCCC4=CCCCC4)ncnc32)cc1`, the survival was inactive: 59%.

As for `Cc1nn(C)c(C)c1N1C(=O)c2cccc3c(Br)ccc(c23)C1=O`, the survival is inactive: 108%.

Take `Cc1ccc(CNC(=O)c2c(C)oc3nc(C)nc(N4CCOCC4)c23)cc1`: the survival was inactive: 88%.

Consider `CC(C)(C)c1ccc(C(=O)NCC(c2cccs2)S(=O)(=O)c2cccs2)cc1` (stereo not drawn), for which the survival is inactive: 64%.
